# In PubChem BioAssay AID2100 (National Center for Advancing Translational Sciences (NCATS), 2009):
# The whole screen tested about 300,000 compounds, of which about 1,200 (0.4%) were called active. The shares of active, inactive and inconclusive entries below differ from those in the screen. Calls follow the shape of the dose curve; as a rule, active = well fitted inhibition curve with a large enough effect; inconclusive = small, poorly fitted or top-dose-only effect, or another doubt; inactive = no such curve, though single readings can be large or run the other way. Potencies of inconclusive entries are doubtful fits and often do not repeat.
# Target: Lysosomal alpha-glucosidase (Homo sapiens) (UniProt P10253)
# Assay: qHTS Assay for Inhibitors and Activators of Human alpha-Glucosidase Cleavage of Glycogen;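 as to activity change, negative = inhibition: 0% = full enzyme reaction and -100% = no-enzyme basal signal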
# Settings: recombinant GAA, glycogen substrate, Amplex Red glucose oxidase fluorescence; activity change, negative = inhibition: at 76.4 µM (top of the series) unless noted
# How it was run: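 qHTS, 1536-well; enzyme 4 nM final; cpd up to 77 uM; substrate bovine liver glycogen 30 ug; 50 mM citrate/phosphate pH 5.0, 0.01% Tween-20; 37 C, 40 min; Amplex Red detection 45 min RT; Hill fit → AC50.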
# Potency is read from the fitted curve at half-maximal effect.
SMILES,Potency,"activity change, negative = inhibition"
Nc1nc(SCC(=O)NNc2c(Cl)cc(Cl)cc2Cl)n[nH]1,"inconclusive: 39.5 µM [inhibitor, single point]",
O=c1nc(N2CCOCC2)ccn1-c1nc(-c2ccccc2)sc1-c1ccccc1,"inconclusive: 5.01 µM [inhibitor, single point]",
COc1ccc(Nc2oc(-c3cccs3)nc2C#N)cc1,"inconclusive: 22.2 µM [inhibitor, single point]",
COc1ccc(Nc2ccccc2)c(C)c1,"inconclusive: 14.1 µM [inhibitor, partial curve]",
COc1cccc(CNCCSc2nnnn2C)c1OCc1ccccc1,inactive,
COc1ccc(O)c(CN2CCCC(N3CCN(c4ccc(F)cc4)CC3)C2)c1 (centres undefined),"inconclusive: 17.8 µM [inhibitor, partial curve]",
CN(C)c1ccc(/C=N/NC(=O)c2ccccn2)cc1,"inconclusive: 35.5 µM [inhibitor, partial curve]",
C/C(=N\NC(=O)c1cccc(N2CCCC2=O)c1)c1ccc(N)cc1,"inconclusive: 50.1 µM [inhibitor, single point]",
CCCN(CCC)C(=O)Cn1c(=O)n(-c2ccc(CC)cc2)c(=O)c2ccc(C(=O)NCCc3ccccc3)cc21,inactive,
CCOC(=O)c1c(C)n(CC)c2c1cc(O)c1ccccc12,"inconclusive: 11.2 µM [inhibitor, single point]",
CCOc1ccc(NC(=O)c2c(NC(=O)CNCCN3CCOCC3)sc3c2CCC3)cc1,"inconclusive: 50.1 µM [inhibitor, single point]",
O=C(Nc1ccc(Nc2ccccc2)cc1)C1CC1,"inconclusive: 15.7 µM [inhibitor, partial curve]",
CC(=O)C(Sc1nccc(-c2cccs2)n1)C(C)=O,inactive,
Nc1nc(N2CCN(c3cccc(Cl)c3)CC2)n[nH]1,"inconclusive: 7.08 µM [inhibitor, full curve]",
Cc1ccccc1NCc1nc2ccccc2n1C,inactive,
CCC1=Nc2cc(C(=O)NC3CCC(C)CC3)ccc2Sc2ccc(C)cc21 (centres undefined),inactive,
CCOC(=O)c1[nH]c2ccc(OC)cc2c1NC(=O)NC(C)C,"inconclusive: 7.94 µM [inhibitor, full curve]",
O=C1CCC/C(=N/NC(=O)c2ccc(NS(=O)(=O)c3cccs3)cc2)C1,"inconclusive: 19.8 µM [inhibitor, single point]",
COc1ccc(N2CCC(CNC(=S)Nc3cc(C)ccc3C)C2)cc1 (centres undefined),"inconclusive: 35.5 µM [inhibitor, partial curve]",
Nc1ccc(OCc2ccccc2)cc1,"inconclusive: 22.4 µM [inhibitor, partial curve]",
COc1ccc(-c2csc(Nc3ccc(O)cc3)n2)cc1,active: 11.2 µM,
CCOC(=O)c1csc(NNC=O)n1,"inconclusive: 2.24 µM [inhibitor, full curve]",
Cn1c(-c2ccc3c(c2)OCO3)cnc1NCc1cccc(Cl)c1,active: 17.6 µM,

SMILES,Potency,"activity change, negative = inhibition"
C=CCNC(=O)COC(=O)c1c2c(nc3ccccc13)CCC2,inactive,
Cc1cc(C)cc(NC(=S)Nc2ccc(Cl)c(Cl)c2)c1,"inconclusive: 35.5 µM [inhibitor, single point]",
CCN(CC)CCCNc1oc(-c2ccc(OC)c(OC)c2)nc1C#N,"inconclusive: 24.9 µM [inhibitor, partial curve]",
O=C(Cc1cc(=O)[nH][nH]1)N/N=C/c1ccccc1[N+](=O)[O-],"inconclusive: 28.2 µM [inhibitor, single point]",
CCOC(=O)C(C)n1cnc2c(cnn2-c2ccc(Cl)cc2)c1=O (centres undefined),"inconclusive: 39.8 µM [inhibitor, partial curve, poor fit]",
COc1ccc(C2C(C#N)=C(N)N3C(=C2C#N)Sc2ccccc23)cc1 (centres undefined),"inconclusive: 12.5 µM [activator, partial curve]",
O=C1C2CCCN2c2ccc(S(=O)(=O)N3CCOCC3)cc2N1Cc1ccccc1F (centres undefined),"inconclusive: 25.1 µM [inhibitor, partial curve]",
Oc1ccc(-c2csc(NCc3ccco3)n2)cc1,"inconclusive: 17.6 µM [inhibitor, partial curve]",
Cc1ccc(N=Cc2sc(O)c3ccccc23)c(C)c1,"inconclusive: 39.8 µM [inhibitor, single point]",
CCCc1c(C)[nH]c2ccc(NC(C)=O)cc2c1=O,,inconclusive: 51.8% [activator]
COc1cc(NS(=O)(=O)c2ccc(NC(=S)NC(=O)c3ccc(F)c(F)c3)cc2)nc(OC)n1,"inconclusive: 50.1 µM [inhibitor, single point]",
CN(C)c1nc(NN)nc(Nc2ccc(F)cc2)n1,"inconclusive: 11.2 µM [inhibitor, partial curve]",
O=C(NNS(=O)(=O)c1ccc([N+](=O)[O-])cc1)c1ccncc1,"inconclusive: 50.1 µM [inhibitor, single point]",
Cc1ccccc1Nc1c(-c2ccc(N3CCOCC3)cc2)nc2ccccn12,"inconclusive: 35.5 µM [inhibitor, partial curve]",
CC(C)C(O)(C(=O)NNc1ccccc1)C(C)C,"inconclusive: 20 µM [inhibitor, partial curve]",
Cc1ccc(NC(=O)CC2SC(=Nc3ccc(O)cc3)NC2=O)cc1 (centres undefined),"inconclusive: 12.5 µM [inhibitor, partial curve]",
COc1ccc(NC(=O)CN(c2cc(C)cc(C)c2)S(=O)(=O)c2c(C)noc2C)cc1Cl,inactive,
Clc1ccc(-c2nc(-c3ccccn3)no2)cc1Cl,,inconclusive: 25.1% [activator]
CCc1ccccc1NNC(=O)c1cc(C)on1,"inconclusive: 8.91 µM [inhibitor, full curve]",
COc1cc(C2C(C(=O)c3ccco3)=C(O)C(=O)N2CCc2ccccc2)ccc1O (centres undefined),"inconclusive: 28.2 µM [inhibitor, partial curve]",
Cc1ccc(C)c(NC(=S)NCc2ccc3[nH]c4c(c3c2)CCCC4)c1,"inconclusive: 28.2 µM [inhibitor, partial curve]",
Nc1ccc(O)c2c(=O)cc(-c3ccccc3Cl)oc12,active: 14.1 µM,
CCn1c(-c2cc(-c3ccccc3)sc2N)n[nH]c1=S,"inconclusive: 28.2 µM [inhibitor, partial curve]",

SMILES,Potency,"activity change, negative = inhibition"
CC1(C)CC(NC(=O)c2ccccn2)CC(C)(C)N1O,"inconclusive: 22.4 µM [inhibitor, single point]",
CCOC(=O)/C=C1\NC(C)(C)Cc2cc(OC)c(O)cc21,"inconclusive: 25.1 µM [inhibitor, single point]",
COc1cccc(C2C(C#N)=C(N)N(N(C)C)C3=C2C(=O)CCC3)c1OC (centres undefined),"inconclusive: 50.1 µM [inhibitor, single point]",
CC(C)(O)C(=O)NNC(=S)NCc1ccco1,"inconclusive: 12.6 µM [inhibitor, partial curve]",
O=C1NC2(CCCCC2)NN1c1ccccc1,"inconclusive: 19.8 µM [inhibitor, partial curve]",
CCOC(=O)c1c(C)[nH]c(NC(=O)N2CCOCC2)c1C,"inconclusive: 35.5 µM [inhibitor, single point]",
COc1ccc2c(c1)NC(c1ccc(OCC(C)C)cc1)=NC(c1ccncc1)=N2,"inconclusive: 44.7 µM [inhibitor, single point]",
Clc1ccc(Cc2nc(-c3cccnc3)no2)cc1,"inconclusive: 1.57 µM [inhibitor, full curve, poor fit]",
C=CCNC(=O)/C(C#N)=C/c1c(N2CCCCCC2)nc2ccccn2c1=O,inactive,
O=C(NNC(=S)NCc1ccccc1)c1ccc(Br)cc1,"inconclusive: 50.1 µM [inhibitor, single point]",
CC1CN(C(=O)N2CCC(C(=O)NC3CCCCCC3)CC2)c2cc(Cl)ccc2O1 (centres undefined),"inconclusive: 31.6 µM [activator, single point]",
COc1cccc(C2Oc3ccccc3C3CC(c4cccs4)=NN32)c1 (centres undefined),"inconclusive: 39.5 µM [activator, single point]",
Cc1c(C(=O)NNC(=S)Nc2ccc(S(N)(=O)=O)cc2)oc2ccccc12,"inconclusive: 35.5 µM [inhibitor, single point]",
CCc1ccccc1-n1c(-c2ccncc2)n[nH]c1=S,,inconclusive: 37% [activator]
CCC(=O)NC1=C(Cl)C(=O)C(NC(=O)CC)=C(Cl)C1=O,inactive,
COc1ccc(-n2c(C)cc(/C=N/Nc3nc(N4CCOCC4)nc(N4CCOCC4)n3)c2C)cc1,"inconclusive: 20 µM [inhibitor, partial curve]",
Cc1ccc(N2C(=O)Cc3ccccc3C2=O)cc1,"inconclusive: 31.6 µM [inhibitor, single point]",
CC(C)CC(=O)Nc1ccc(C(=O)CN2CCN(c3ccc(O)cc3)CC2)cc1,"inconclusive: 44.7 µM [inhibitor, single point]",
CCc1cc(-c2[nH]ncc2-c2nc3ccccc3n2C)c(O)cc1O,"inconclusive: 39.8 µM [inhibitor, partial curve]",
NC(=O)CC1Nc2cccc3cccc(c23)NC1=O (centres undefined),inactive,
S=c1[nH]nc(-c2cc3ccccc3o2)n1Cc1ccccc1,"inconclusive: 28.2 µM [inhibitor, partial curve, poor fit]",
CCOC(=O)/C(=N\Nc1cccc(C(F)(F)F)c1)N(CCOC)CCOC,"inconclusive: 28.2 µM [inhibitor, partial curve]",
N#CC1=C(N)Oc2ccccc2C12C(=O)Nc1n[nH]c(-c3ccccc3)c12 (centres undefined),inactive,
